# Experimental data published in patent US20110166106A1, “ARTEMISININ AND DERIVATIVES THEREOF AS ANTIVIRALS” (priority 2008, published 2011).
# Key:
# HSV-1 = assay: ART sensitivity of HSV-1; type: cell-based
# Excerpt: Previously, the strong anti-cytomegaloviral activity of ART was published by our group (Efferth et al., 2006; Kaptein et at, 2006). In these studies, the inhibitory potential of ART towards various cytomegaloviruses (human and animal CMVs) was described, both in cell culture models and in infected animals (Kaptein et al., 2006). […] However, the current status of investigations strongly encourages the use of ART in anti-herpesviral therapy. […] Concerning the chances of ART in anti-herpesviral therapy, particular interest would be in clinically complex situations which cannot be resolved by conventional antiviral treatment, such as organ and bone marrow transplantations with life-threatening herpesvirus reactivations, where conventional antivirals such as ganciclovir cannot safely be used because they would be toxic to the newly introduced tissue or stem cells.
# HHV-6B, Z-29 variant = assay: Inhibition of p41 early protein production in HHV-6B-infected MOLT-3 cells, Western blot; type: cell-based; conditions: 3 days, ART at 1.5 μM or 15 μM, mAb 6A5D12
# Procedure: MOLT-3 cells are infected with HHV-6B, Z-29 variant, and cultured in the presence or absence of ART for 3 days. Western blot analysis is performed using mAb 6A5D12, which detects both HHV-6A and HHV-6B variants of p41, an Early Protein of HHV-6. […] Accordingly, it is shown that ART interferes with progression of HHV-6 infection from the latent stage characterized by IE to an active stage where p41 would be produced.
# HHV-6B strain Z-29 [1] = assay: Immunofluorescence antibody test for HHV-6 proteins in HHV-6B-infected MOLT-3 cells; type: cell-based; conditions: 3 days
# Procedure: (§1) MOLT-3 cells infected with HHV-6B strain Z-29 are treated with ART, or with gancyclovir (GCV) as a control, for 3 days. Viral DNA synthesis is then tested by PCR. Cells are then fixed with acetone treatment.
# [2] = tested on: drug-resistant cytomegalovirus; conditions: advanced stage drug-resistant cytomegalovirus infection, after hematopoietic stem cell transplantation; cited from earlier work
# [3] = tested on: drug-resistant HHV-6B isolates; assay: Inhibition of drug-resistant HHV-6B isolates in MT4 cells; conditions: isolates resistant to PFA, GCV and CDV, compared with the drug each isolate resists
# HHV-6A (strain U1102) = assay: Inhibition of p41/38 early protein production in HSB-2/U1102 cells, Western blot; type: cell-based; conditions: 3 days, 1.5 μM and 5 μM ART identical results
# HHV-6B strain Z-29 [4] = assay: Viral DNA synthesis by PCR in HHV-6B-infected MOLT-3 cells; type: cell-based; conditions: 3 days, compared with GCV
# Procedure: as §1
# [5] = tested on: human cytomegalovirus (HCMV, strain AD169); assay: Standard plaque reduction assay, HCMV
# [6] = tested on: CDVR1 (HST-derived HHV-6 B); conditions: CDVR1, MT4 cells; cited from earlier work
# [7] = tested on: GCVR1 (HST-derived HHV-6 B); conditions: GCVR1, MT4 cells; cited from earlier work
# [8] = tested on: GPFAR1 (GCVR1-derived HHV-6 B); conditions: GPFAR1, MT4 cells; cited from earlier work
# [9] = tested on: HST strain (HHV-6 B), wild-type; conditions: MT4 cells; cited from earlier work
# cytomegaloviruses = conditions: Kaptein et al, 2006; cited from earlier work
SMILES,sensitivity towards ART (HSV-1),"production of detectable amounts of p41 (HHV-6B, Z-29 variant)",formation of HHV-6 viral proteins (HHV-6B strain Z-29 [1]),antiviral effect in a patient [2],inhibition of viral infection [3],levels of viral p41/38 (HHV-6A (strain U1102)),viral DNA synthesis by PCR (HHV-6B strain Z-29 [4]),ART sensitivity of HCMV [5],IC50 [6],"RI (resistance index), ratio of IC50 to HST [6]",IC50 [7],"RI (resistance index), ratio of IC50 to HST [7]",IC50 [8],"RI (resistance index), ratio of IC50 to HST [8]",IC50 [9],antiviral activity (cytomegaloviruses)
"C[C@H]1[C@H](OC(=O)CCC(=O)O)O[C@@H]2O[C@@]3(C)CC[C@H]4[C@H](C)CC[C@@H]1[C@@]24OO3 [ART, artesunate]",sensitive,blocks production of detectable amounts of p41,inhibited formation of HHV-6 viral proteins,potent antiviral,greater inhibition,below the detection limit,blocks viral DNA synthesis more effectively than does GCV,marked ART-sensitivity,–,–,–,–,–,–,–,–
"Nc1ccn(C[C@@H](CO)OCP(=O)(O)O)c(=O)n1 [CDV, cidofovir]",–,–,–,–,–,–,–,–,213 ± 77.3 µM,[118.4],57.8 ± 27.6 µM,[32.6],12.5 ± 4.4 µM,[7.0],1.8 ± 0.9 µM,–
"Nc1nc(O)c2ncn(COC(CO)CO)c2n1 [GCV, ganciclovir]",–,–,–,–,–,did not show a similar degree of inhibition,–,–,12.9 ± 4.3 µM,[4.2],25.9 ± 2.8 µM,[8.4],25.7 ± 3.9 µM,[8.4],3.1 ± 0.8 µM,–
"O=C(O)P(=O)(O)O [PFA, foscarnet]",–,–,–,–,–,–,–,–,17.8 ± 6.9 µM,[1.2],18.9 ± 5.4 µM,[1.3],218 ± 17.3 µM,[14.6],15 ± 7 µM,–
"C[C@@H]1CC[C@H]2[C@@H](C)C(=O)O[C@@H]3O[C@@]4(C)CC[C@@H]1[C@]32OO4 [artemisinin, Artemisinin]",–,–,–,–,–,–,–,–,–,–,–,–,–,–,–,relatively low
